The subject of one experiment is HSkMC. Put plainly: cytotoxicity call (relative viability < 0.9). Particulars: 10 µM.
For the next experiment, the system named is S. aureus RN4220. Put plainly: growth inhibition call (relative growth <= 0.2). Conditions: 50 µM.

Some of the results follow.

As to `C[C@@H]1CN([C@@H](C)CO)S(=O)(=O)c2ccc(C#CC3CC3)cc2O[C@H]1CN(C)C(=O)Cc1ccncc1`, the cytotoxicity call in the experiment with HSkMC was “inactive”. Also, the growth inhibition call in the experiment on S. aureus RN4220 is “inactive”.

For the compound `C[C@H](CO)N1C[C@H](C)[C@H](CN(C)C(=O)Nc2ccccc2)OCCCC[C@H](C)Oc2ccc(NC(=O)Nc3ccc(C(F)(F)F)cc3)cc2C1=O`, in the experiment with HSkMC, the cytotoxicity call was “inactive”. Besides, the growth inhibition call in the experiment on S. aureus RN4220 was “inactive”.

`Cc1ccc(S(=O)(=O)N(C)C[C@@H]2Oc3ccc(NS(=O)(=O)c4ccccc4)cc3CC(=O)N([C@H](C)CO)C[C@H]2C)cc1`: the cytotoxicity call in the experiment with HSkMC was “inactive”. For the same compound, the growth inhibition call with S. aureus RN4220 was “inactive”.

On to `Cc1ccc(S(=O)(=O)N(C)C[C@H]2Oc3c(NS(=O)(=O)c4cccs4)cccc3C(=O)N([C@H](C)CO)C[C@H]2C)cc1`, for which the cytotoxicity call in the experiment on HSkMC was “inactive”. In addition, in the experiment on S. aureus RN4220, the growth inhibition call is “inactive”.

As to `OCC1OC(OCCc2ccc(O)cc2)C(O)C(O)C1O` (stereo not drawn), in the experiment on HSkMC, the cytotoxicity call was “inactive”. The growth inhibition call in the experiment with S. aureus RN4220 is “inactive”.

For `Cc1ccc(S(=O)(=O)N(C)C[C@H]2OCCCC[C@H](C)Oc3ccc(NC(=O)Nc4cccc5ccccc45)cc3C(=O)N([C@@H](C)CO)C[C@@H]2C)cc1`, the cytotoxicity call in the experiment with HSkMC was “inactive”. Further, in the experiment on S. aureus RN4220, the growth inhibition call was “inactive”.

With `C[C@@H]1CN([C@H](C)CO)C(=O)c2cc(NS(=O)(=O)c3cccs3)ccc2O[C@@H](C)CCCCO[C@@H]1CN(C)C(=O)CCC(F)(F)F`, the cytotoxicity call in the experiment with HSkMC was “inactive”. Further, the growth inhibition call with S. aureus RN4220 was “inactive”.

In the case of `C[C@@H]1CCCCO[C@H](CN(C)C(=O)Cc2ccccc2)[C@H](C)CN([C@@H](C)CO)C(=O)c2cc(NC(=O)NC3CCCCC3)ccc2O1`, the cytotoxicity call in the experiment on HSkMC is “inactive”. Besides, in the experiment on S. aureus RN4220, the growth inhibition call was “inactive”.

For the compound `C[C@H](CO)N1C[C@H](C)[C@@H](CN(C)C(=O)C2CCOCC2)Oc2ncc(C#Cc3cccc(F)c3)cc2C1=O`, in the experiment with HSkMC, the cytotoxicity call is “inactive”. Moreover, in the experiment on S. aureus RN4220, the growth inhibition call was “inactive”.

Take `NC(=O)NCC#Cc1ccc2c(c1)[C@]1(C(=O)N2)[C@H](C(=O)N2CCCCCCC2)[C@H]2C(=O)O[C@H](c3ccccc3)[C@H](c3ccccc3)N2[C@@H]1c1ccccc1OCCO`: the cytotoxicity call in the experiment on HSkMC was “inactive”. For the same compound, the growth inhibition call in the experiment on S. aureus RN4220 is “inactive”.

On to `COc1ccc(NC(=O)N(C)C[C@@H]2OCCCC[C@@H](C)Oc3ccc(NC(=O)Nc4ccc(C(F)(F)F)cc4)cc3C(=O)N([C@H](C)CO)C[C@@H]2C)cc1`, for which the cytotoxicity call in the experiment with HSkMC is “inactive”. In the experiment on S. aureus RN4220, the growth inhibition call was “inactive”.

For `C[C@H](CO)N1C[C@H](C)[C@H](CN(C)Cc2ccc(Oc3ccccc3)cc2)Oc2ccc(NC(=O)CCC(F)(F)F)cc2C1=O`, the cytotoxicity call in the experiment on HSkMC was “inactive”. For the same compound, the growth inhibition call in the experiment on S. aureus RN4220 was “inactive”.

`CO[C@@H]1CN(C)C(=O)c2ccc(NS(=O)(=O)c3ccccc3)cc2OC[C@H](C)N(C(=O)NC(C)C)C[C@@H]1C`: the cytotoxicity call in the experiment with HSkMC was “inactive”. In the experiment on S. aureus RN4220, the growth inhibition call is “inactive”.

For `CO[C@@H]1CN(C)C(=O)c2cc(NC(=O)CC(F)(F)F)ccc2OC[C@@H](C)N(S(=O)(=O)c2cn(C)cn2)C[C@@H]1C`, the cytotoxicity call in the experiment on HSkMC is “inactive”. The growth inhibition call in the experiment with S. aureus RN4220 is “inactive”.

Consider `COc1ccc(S(=O)(=O)N(C)C[C@@H]2Oc3ccc(NS(=O)(=O)c4c(C)noc4C)cc3C(=O)N([C@@H](C)CO)C[C@@H]2C)cc1`, for which, in the experiment with HSkMC, the cytotoxicity call was “inactive”. Also, in the experiment on S. aureus RN4220, the growth inhibition call is “inactive”.

As to `C[C@H](CO)N1C[C@H](C)[C@@H](CN(C)C(=O)CCC(F)(F)F)OCCCC[C@H](C)Oc2ccc(NC(=O)c3ccccc3)cc2C1=O`, the cytotoxicity call in the experiment with HSkMC is “inactive”. Moreover, the growth inhibition call in the experiment with S. aureus RN4220 is “inactive”.

In the case of `Cc1nc(CCO)cs1`, in the experiment with HSkMC, the cytotoxicity call was “inactive”. Also, the growth inhibition call with S. aureus RN4220 is “inactive”.

As to `Cc1noc(C)c1S(=O)(=O)Nc1ccc2c(c1)C(=O)N([C@H](C)CO)C[C@@H](C)[C@@H](CN(C)C(=O)Nc1cccc3ccccc13)OCCCC[C@@H](C)O2`, the cytotoxicity call with HSkMC was “inactive”. The growth inhibition call in the experiment with S. aureus RN4220 is “inactive”.

For the compound `C[C@@H]1CN([C@H](C)CO)C(=O)c2cc(NC(=O)C3CCCCC3)ccc2O[C@@H](C)CCCCO[C@H]1CN(C)Cc1ccc(C(F)(F)F)cc1`, the cytotoxicity call with HSkMC was “inactive”. The growth inhibition call in the experiment on S. aureus RN4220 was “inactive”.

Turning to `C[C@H]1CCCCO[C@@H](CN(C)Cc2ccc(C(F)(F)F)cc2)[C@@H](C)CN([C@@H](C)CO)C(=O)c2cc(NC(=O)Nc3ccc4c(c3)OCO4)ccc2O1`, the cytotoxicity call with HSkMC was “inactive”. Also, the growth inhibition call with S. aureus RN4220 is “inactive”.

Consider `C[C@H](CO)N1C[C@H](C)[C@H](CN(C)Cc2ccccc2)Oc2ncc(-c3cccc(C(F)(F)F)c3)cc2C1=O`, for which the cytotoxicity call in the experiment on HSkMC is “inactive”. Besides, the growth inhibition call with S. aureus RN4220 is “inactive”.

`C[C@@H]1CN([C@@H](C)CO)C(=O)c2cc(NC(=O)CCN3CCOCC3)ccc2O[C@@H]1CN(C)S(=O)(=O)c1ccccc1`: in the experiment with HSkMC, the cytotoxicity call is “inactive”. Also, the growth inhibition call in the experiment on S. aureus RN4220 is “inactive”.

As for `CC(C)NC(=O)Nc1ccc2c(c1)C(=O)N([C@@H](C)CO)C[C@H](C)[C@@H](CN(C)Cc1ccc(C(=O)O)cc1)O2`, the cytotoxicity call in the experiment on HSkMC was “inactive”. Also, the growth inhibition call in the experiment on S. aureus RN4220 was “inactive”.

Take `C[C@H]1CN([C@@H](C)CO)C(=O)c2cc(C#Cc3ccc(F)cc3)cnc2O[C@H]1CN(C)CC1CCOCC1`: the cytotoxicity call with HSkMC is “inactive”. The growth inhibition call in the experiment on S. aureus RN4220 is “inactive”.

As to `C[C@H](CO)N1C[C@H](C)[C@H](CN(C)S(=O)(=O)c2ccccc2)Oc2ncc(C#Cc3ccccc3)cc2C1=O`, in the experiment on HSkMC, the cytotoxicity call is “inactive”. In addition, the growth inhibition call with S. aureus RN4220 was “inactive”.

`C[C@H](CO)N1C[C@H](C)[C@@H](CN(C)Cc2ccc(Oc3ccccc3)cc2)Oc2c(NC(=O)C3CC3)cccc2C1=O`: in the experiment on HSkMC, the cytotoxicity call is “inactive”. Also, the growth inhibition call with S. aureus RN4220 is “inactive”.

Turning to `C[C@H](CO)N1C[C@H](C)[C@H](CN(C)Cc2ccc(-c3ccccc3)cc2)Oc2ccc(NC(=O)c3ccncc3)cc2CC1=O`, the cytotoxicity call with HSkMC was “inactive”. For the same compound, the growth inhibition call in the experiment on S. aureus RN4220 was “inactive”.

Regarding `Cc1noc(C)c1NC(=O)N(C)C[C@H]1Oc2ccc(NC(=O)NC(C)C)cc2C(=O)N([C@H](C)CO)C[C@H]1C`, the cytotoxicity call in the experiment on HSkMC (human skeletal muscle cells) is “inactive”. The growth inhibition call in the experiment with S. aureus RN4220 is “inactive”.

Take `COc1ccc(S(=O)(=O)N(C)C[C@@H]2OCCCC[C@@H](C)Oc3ccc(NC(=O)Nc4ccc(F)cc4)cc3C(=O)N([C@@H](C)CO)C[C@@H]2C)cc1`: the cytotoxicity call in the experiment with HSkMC was “inactive”. For the same compound, in the experiment with S. aureus RN4220, the growth inhibition call is “inactive”.

Values taken from the antibiotic and cytotoxicity screens of Wong et al. (2023).
